The supplement of paper PMC10338343
± gives the standard deviation. Whole data set: some 6,600 sequences, median “pre-steady-state target cleavage rate” near 0.07, cut for the highest 2% near 0.72. The entries are a selection whose mix differs from that of the whole data set.

The sequences below were run on MIWI (PIWIL1) piRISC loaded with Kctd7 piRNA (30 nt) (assay: pre-steady-state target cleavage rate (min^-1); MIWI and MILI are mouse PIWI proteins and EfPiwi is from a freshwater sponge; tags in brackets are library labels; higher = faster piRNA-guided slicing of the target). Details: guide: Kctd7 piRNA 5'p-UGUUAAUCUCUCAGAGAAGGUGACAGUGAU; auxiliary factor: 500 nM mouse GTSF1.
Method in brief: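 A burst-and-steady-state fit was used to obtain the pre-steady-state cleavage rate. The input data were sequencing reads of uncleaved targets, normalised to depth and to weakly complementary targets, from a […] transcribed, DNA-blocked target RNA library mixed with 1 nM active affinity-purified piRISC holding one synthetic guide, with or without 500 nM GTSF1 partner protein, in HEPES–potassium acetate buffer at 33 °C for 0–8 or 0–960 min. Three trials were pooled and k3 was capped at 0.0001 min^-1.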
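Also: 1 nM active piRISC with 0.1 nM target library at 33 °C single turnover.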

Going from UAGUGUCAGACCUUCUCUGAGAGAUUAACA to UAGUGACACACCUCUCUGAGAGAUUAACA, the “pre-steady-state target cleavage rate” value falls from 0.195 ± 0.02 to 0.0282 ± 0.0063.

First: UAGUGUGUCACCUUCUCUAGAGAGAUUAACA
Second: UAGACUCUCACCUUCUCAGAGAGAUUAACA
The “pre-steady-state target cleavage rate” value of the first is lower: 0.015 ± 0.0071 for the first, 0.25 ± 0.019 for the second.

Compared with AUCACUGUCACCUUCUCUGACAGAUUAUCA, AUGUGUGUCACCUUCUCUGAGAGAUUAUGA is higher in “pre-steady-state target cleavage rate” value: 0.0262 ± 0.0092 for the first, 0.118 ± 0.022 for the second.

Going from AUCACUGUGACCUUCUCUGAGAGAUUUACA to UAGUCUGUGACCUUCUCUGAGUGAUUAACA, the “pre-steady-state target cleavage rate” value falls from 0.361 ± 0.043 to 0.0247 ± 0.0042.

Compared with UAGUGACAGUCCUCUCUCUGAGAGAUUAACA, UAGUGACAGUGGAAGACUGAGAGAGUUAACA is lower in “pre-steady-state target cleavage rate” value: 0.16 ± 0.018 for the first, less than 0.0001 for the second.

First: UAGUGACACACCUUCUCUAAGAGAUUAACA
Second: AUCACUGUCACCUUCUCUGACAGAUUAUGA
The “pre-steady-state target cleavage rate” value of the first is higher: 0.211 ± 0.014 for the first, 0.0118 ± 0.0057 for the second.

First: UACACUGUCACCUUCAUCUGAGAGAUUAACA
Second: AUCUGUGUCACCUUCUCUGAGAGAUUAACA
The “pre-steady-state target cleavage rate” value of the first is lower: 0.205 ± 0.046 for the first, 0.417 ± 0.025 for the second.

Going from UAGUGACACACCAUCUCUGAGAGAUUAUCA to UAGUGACACACCUUCUCUGUGAGAUUAUGA, the “pre-steady-state target cleavage rate” value falls from 0.0889 ± 0.013 to 0.00909 ± 0.0027.

Going from UAGUGACUCACCUUCUCUGAGAGUUUUUGA to AUCACUGUCACCUUCUCUGAGAGAUUAAUCA, the “pre-steady-state target cleavage rate” value rises from 0.00432 ± 0.0039 to 0.381 ± 0.04.

Going from UACACUGUCACCUUCUCUGAGACGAUUAACA to UAGUCUGUCACCUUCUCUGAGAGAUUAAGCA, the “pre-steady-state target cleavage rate” value rises from 0.0233 ± 0.0046 to 0.18 ± 0.024.

First: UACACUGUCACCUUCACUGAGAGAUUAUGA
Second: UUCACUCUCUCCUUCUCUGAGAGAUUAACA
The “pre-steady-state target cleavage rate” value of the first is lower: 0.104 ± 0.029 for the first, 0.398 ± 0.027 for the second.

Going from UAGUCUGUCACCUUCACUGUGAGAUUAACA to UAGUGUGGCACCUUCUCUGAGAGAUUAACA, the “pre-steady-state target cleavage rate” value rises from 0.139 ± 0.0065 to 0.243 ± 0.058.

Compared with UAGUGUGUCACCUUCCUCUGAGAGAUUAACA, UAGUGACUCAGCUUCUCUGAGAGAUUAUCA is lower in “pre-steady-state target cleavage rate” value: 0.284 ± 0.024 for the first, 0.0496 ± 0.0071 for the second.

First: UAGUGACUCACCUUCUCUGAGAGUUUAACA
Second: UACACUGUCACCUUCUGAGAGAGAUUAUGA
The “pre-steady-state target cleavage rate” value of the first is higher: 0.386 ± 0.07 for the first, 0.0105 ± 0.0071 for the second.

Going from UACUCUGUCACCUUCUCAGAGAGAUUAACA to AUCACUGUCACCUUCUCUGAGAGAUUACCA, the “pre-steady-state target cleavage rate” value falls from 0.313 ± 0.026 to 0.229 ± 0.04.

First: UAGACUGUCACCUUCUCUGAGAGAAUAUCA
Second: UUCACAGUCACCUUCUCUGACAGAUUAACA
The “pre-steady-state target cleavage rate” value of the first is lower: 0.0088 ± 0.004 for the first, 0.515 ± 0.031 for the second.

First: UUCACUGACACCUUCUCAGAGAGAUUAACA
Second: UAGUGACACACCGUCUCUGAGAGAUUAACA
The “pre-steady-state target cleavage rate” value of the first is lower: 0.252 ± 0.016 for the first, 0.443 ± 0.03 for the second.

Compared with AUCACUGUCACCUUCUCUGUGAGAUUUUGA, UAGUGACACACCUUCUCUGAGACAUUUACA is lower in “pre-steady-state target cleavage rate” value: 0.0412 ± 0.013 for the first, 0.00651 ± 0.003 for the second.

Compared with AUCACUGUCACCUUCGUCUGAGAGAUUAACA, UAGUGACACACCUUCUCUGAGAGAUUUUGA is lower in “pre-steady-state target cleavage rate” value: 0.212 ± 0.04 for the first, 0.0134 ± 0.005 for the second.

Going from UAGUGUGUCACCUUCUCUGAGUGAUUAAGA to UACACUGAGACCUUCUCUGAGAGAUUAUGA, the “pre-steady-state target cleavage rate” value rises from 0.0052 ± 0.004 to 0.0374 ± 0.015.

Going from UACACUGUCUACCUUCUCUGAGAGAUUAACA to UAGUGACAGUCCUUCUCUGAGAGAUUCAACA, the “pre-steady-state target cleavage rate” value falls from 0.149 ± 0.013 to 0.0144 ± 0.003.

Compared with AUCUCUGUCACCUUCUCUGAGAGAUUAUCA, UAGUCUGUCAGCUUCUCUGAGAGAUUAACA is higher in “pre-steady-state target cleavage rate” value: 0.181 ± 0.031 for the first, 0.453 ± 0.023 for the second.

UAGUGACAGACCUUCUCUGAGAGAUUAAACA and UUCUCUGUCACCUUCUCUGAGAGAUUUUGA are within error of each other in “pre-steady-state target cleavage rate” value: 0.109 ± 0.017 for the first, 0.105 ± 0.024 for the second.

First: UACACUCACACCUUCUCUGAGAGAUUAUGA
Second: UAGUGUGUCACCUUCUCUGAGGAGAUUAACA
The “pre-steady-state target cleavage rate” value of the first is higher: 0.0541 ± 0.015 for the first, 0.00856 ± 0.0052 for the second.

Compared with AUCACUGUCACCUUCUCUGAGAGAUUAACCA, UAGUGACACACCUUCUCUGUGAGAUUAAGA is lower in “pre-steady-state target cleavage rate” value: 0.603 ± 0.042 for the first, 0.0284 ± 0.008 for the second.

Compared with UUCACUGUCACCUUCUCCUGAGAGAUUAACA, UAGUGACAGUCCUUCUCUGUGAGAUUAUCA is lower in “pre-steady-state target cleavage rate” value: 0.795 ± 0.21 for the first, 0.00744 ± 0.002 for the second.

First: UAGACAGUCACCUUCUCUGAGACAUUAACA
Second: UAGUGACAGACCUUGCUCUGAGAGAUUAACA
The “pre-steady-state target cleavage rate” value of the first is higher: 0.268 ± 0.02 for the first, 0.015 ± 0.0052 for the second.

UAGUGACACACGAUCUCUGAGAGAUUAACA and UUCACUGUCACCUUCUCUGAGACAUUAAGA are within error of each other in “pre-steady-state target cleavage rate” value: 0.0126 ± 0.0024 for the first, 0.00752 ± 0.0027 for the second.

Compared with UUCACUGUCACCUUCUCUGAGAGUUUAACA, UAGACUGUCACCUUCUCUGAGAGAUUUUCA is lower in “pre-steady-state target cleavage rate” value: 0.523 ± 0.073 for the first, 0.106 ± 0.018 for the second.

Compared with UAGUGACACUCCUUCUGUGAGAGAUUAACA, UAGUGAGUCACCUUCUCUGAGAUGAUUAACA is lower in “pre-steady-state target cleavage rate” value: 0.135 ± 0.013 for the first, 0.013 ± 0.007 for the second.

First: UAGUGUGUGACCUUCUCUGAGAGAUUAAGA
Second: UAGUGACUCACCUUCUCUGAGAGUUUAUGA
The “pre-steady-state target cleavage rate” value of the first is higher: 0.171 ± 0.032 for the first, 0.0387 ± 0.013 for the second.

UAGACUGUCAGCUUCUCUGAGACAUUAACA and UAGUGACAGUGCUUCUCUGAGAAAUUAACA are within error of each other in “pre-steady-state target cleavage rate” value: 0.00378 ± 0.0026 for the first, 0.00571 ± 0.0034 for the second.

Going from AUCACUGUCACCAUCUCUGAGAGAUUAACA to UAGUGACUCAGCUUCUCUGAGAGAUUAAGA, the “pre-steady-state target cleavage rate” value falls from 0.795 ± 0.048 to 0.0328 ± 0.007.

Going from UACACUGUCACCUAUCUCUGAGAGAUUAACA to UUCACUGUCACCUACUCUGACAGAUUAACA, the “pre-steady-state target cleavage rate” value falls from 0.519 ± 0.042 to 0.227 ± 0.021.

Going from UAGUGACACAGGAUCUCUGAGAGAUUAACA to UAGUGUGUGACCUUCUGUGAGAGAUUAACA, the “pre-steady-state target cleavage rate” value rises from 0.00384 ± 0.0015 to 0.35 ± 0.036.

UAGACUGUCACCAUCUCUGAGACAUUAACA and UAGUGACACUCCUUCUCUGAGAGAUUAUGA are within error of each other in “pre-steady-state target cleavage rate” value: 0.0149 ± 0.0034 for the first, 0.0116 ± 0.0035 for the second.
